Results published in the supplement of paper PMC11417369.
± gives the standard deviation of the averaged measurements. This is one part of the list.

These sequences were tested on PfAP2-I AP2 domain 3 (GST-tagged) (assay: gcPBM binding intensity (ln(normalized median fluorescence intensity)); higher = stronger DNA binding).
Summary of the method: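 The highest Masliner-normalised natural-log median intensity across replicate spots of either probe orientation is reported as binding intensity. GST-tagged P. falciparum DNA-binding domains expressed in E. coli were applied for 1 h to an Agilent 4 × 180k array of primer-extended double-stranded 36-bp intergenic genomic probes plus negative controls, and bound protein was detected with Alexa488 anti-GST antibody and scanned at 488 nm.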

| Sequence | gcPBM binding intensity (ln) |
| --- | --- |
| AAATTATATACCACAGTGCAAAAGGCAGGTATACGT | 10 ± 0.11 |
| TATTATTTTAAGATTGTTTATGTAAAGAATTATGAA [CACACA_negctrl_site445] | 7.41 ± 0.3 |
| TTTTTTTTTTTTTGCACACACATATATAAATATATA [CACACA_site3949] | 9.53 ± 0.4 |
| TATATTGCAAAAAGTACACACATAAATAAATACATA [CACACA_site6589] | 8.2 ± 0.24 |
| GTAGAGAAAAAAATGTGGACACAAAAAATAAAAAGG [XGTACX_site4058] | 8.43 ± 0.46 |
| GTTTATATGTTCATAGTGCATATATGTTGATTTATT | 10.2 ± 0.33 |
| TATAAAAAAAAAAAAAAAAAAAAAAAAAAAAAAAAA [TGCATGCA_negctrl_site42] | 8.21 ± 0.73 |
| TTTTTTTTTTTTTACTGTACTTAATAAGATTGAATA [XGTACX_site2384] | 8.11 ± 0.59 |
| CAGGAGAGAAAATATCGTACAAGCAAAAATAAGTGG [XGTACX_site8557] | 8.23 ± 0.65 |
| ATAAATATTATTTTACGTACATATTTATGAAGTATT [XGTACX_site8746] | 7.92 ± 0.29 |
| AAATTATAAAAATGTAGTACAGACAATATATTCGTA [XGTACX_site8307] | 8.03 ± 0.33 |
| AAATATAATAATACATTGCACATATATTATATATAT [TGCATGCA_negctrl_site611] | 8.53 ± 0.64 |
| TGTAATAATCTTCATTTCTTTTTTTTTTTTTTTTGT [CACACA_negctrl_site1388] | 7.18 ± 0.65 |
| AGTGAATATTACGAAACACACAAAAAAATACATTTC [CACACA_site511] | 7.74 ± 0.59 |
| TAACTTAATAAAAAAAGTACATATATTTTTAATAAA [XGTACX_site2707] | 7.6 ± 0.17 |
| TATTTATTTATTTTGTTATAATTAAAATGGATACAT [XGTACX_negctrl_site387] | 7.63 ± 0.44 |
| CTACACACTTATAAATGTACAGGATTTAAGTATATG [XGTACX_site8245] | 7.66 ± 0.45 |
| AGTAGTCTGGAGAAGAGTACATAGTATCTGGTAGCT [XGTACX_site2017] | 7.89 ± 0.83 |
| TACAGTAAAAATAGTTGTACTTGTTTATTTCTTCTT [XGTACX_site7674] | 7.44 ± 0.4 |
| AAAAGGATATATGAAAGTACAAAGGTATAGTATATT [XGTACX_site7385] | 8.09 ± 0.86 |
| ATAATACCAGAATAGATTTAAATGAATATTTTATTT [CACACA_negctrl_site476] | 7.42 ± 0.55 |
| ATCTTATCATTTTAAAGTACATAATTAATTCTTTTT [XGTACX_site3999] | 7.95 ± 0.45 |
| TATAACAAATAAAAATGTACATATATATAATATATA [XGTACX_site6173] | 7.72 ± 0.23 |

| Sequence | gcPBM binding intensity (ln) |
| --- | --- |
| ATGTGTTTGTATATATGTACATATTTATGTTATTTC [XGTACX_site6960] | 8.07 ± 0.57 |
| TATATATATAAATACACACACACAAAAAAAAAAAAA [CACACA_site4930] | 8.41 ± 0.49 |
| AATTTAATTGTGAGAGTGCGTACTGCTCCACATATA | 8.69 ± 0.042 |
| AAAAAAAAAAAAAAAAAAAAAAAAAAATGAGATACA [GTGCAC_negctrl_site160] | 9.7 ± 0.11 |
| TTTTGATATATGAATATTAAGTTATATAATATTTTA [TGCATGCA_negctrl_site39] | 7.26 ± 0.43 |
| GCCGCACCCAGATACGCACACAAGAAAAAAATATTC [CACACA_site3456] | 8.705 ± 0.021 |
| TATGGATAAATAAATACACACATAAATTTAAATATA [CACACA_site1282] | 7.57 ± 0.61 |
| TGAACATTATAGAAAAGTACTTAGTTTTTAAAAAGA [XGTACX_site6864] | 7.88 ± 0.4 |
| TATTCAAAACGGTATTGTACAAATTTTATAATTTAA [XGTACX_site6928] | 7.57 ± 0.59 |
| TATAAACGCACCTACACACACAACGTAAATGCATTG [CACACA_site7120] | 10.7 ± 0.63 |
| ATTTTTAAATACAGTACACACATGGGTTTAAATTAT [CACACA_site2884] | 7.87 ± 0.58 |
| TATTCTAGAATTTTAACACACAAGAATATAAACTTT [CACACA_site6757] | 7.58 ± 0.56 |
| TATTTATATTTATATACACACATATATACCTATATA [CACACA_site7820] | 7.74 ± 0.52 |
| GATTATTTTAGAAGTACACACATTTATATATAATAA [CACACA_site5429] | 8.14 ± 0.25 |
| GGTTATATGATAGGATGTACAATTAAAAGTAAATAT [XGTACX_site5083] | 8.22 ± 0.6 |
| TTATTATTCTTAAGGATATAACAAAAAAGAAAAATT [CACACA_negctrl_site1402] | 7.71 ± 0.83 |
| TCCTATAAACAAATTTGTACATATAAGAATATATTC [XGTACX_site3892] | 7.74 ± 0.44 |
| TAAAATATAATGATCACACATATAAACAAGTGGGTA [CACACA_site4651] | 7.6 ± 0.68 |
| TTTTGTAGATATTGAAGTACAAAAAAAATGTAAAAG [XGTACX_site5905] | 8.09 ± 0.71 |
| ATCGGTAATATTAACACACACATTTATATATATTTA [CACACA_site1084] | 8.02 ± 0.41 |
| TATATATCGCCCTTCACACACACACGGATATAAATA [CACACA_site7221] | 8.46 ± 0.38 |
| ATAATAAATATATAATGTACATATTATGTTCTTTAT [XGTACX_site8655] | 7.64 ± 0.54 |
| CGCTCTTATAAATGTTGTACATAAAACTGTTCATTA [XGTACX_site3409] | 7.71 ± 0.52 |

| Sequence | gcPBM binding intensity (ln) |
| --- | --- |
| ATATATATATATATATGTACATATTTGATTTTTCTT [XGTACX_site8171] | 9.17 ± 0.31 |
| ACAACATATGTTATCACACACATATAAATATAAATA [CACACA_site7038] | 7.79 ± 0.45 |
| ATTTTGATGATGTATGCACACATTGAAAATGAGAAA [CACACA_site2916] | 8.87 ± 0.42 |
| TCACTACATTTTGGACGTACACAACTTGATATATTG [XGTACX_site4775] | 7.88 ± 0.73 |
| CACACGCACAGACACACACACACACGGATATAAATA [CACACA_site6301] | 8.39 ± 0.28 |
| TTTTTTTTTTTTTTTTGTACATATAAAAATACGTAA [XGTACX_site6003] | 8.12 ± 0.66 |
| AAATCTTAACTCTATGCACACATAAAAGTATATAAA [CACACA_site8709] | 9.11 ± 0.014 |
| ATGATATACTTGAGTGTGCACAAACTATTACTTACA | 10.7 ± 0.17 |
| ATATTTTGATAATATTGTACAAAAACATTAAAATGT [XGTACX_site8361] | 7.7 ± 0.42 |
| AACATTATGTTTATTTGTACATATAAATATATGTAA [XGTACX_site7389] | 7.58 ± 0.31 |
| TCTTTTATGATATTTACACACAAACGTGAGATAGCT [CACACA_site2312] | 7.75 ± 0.64 |
| CTCTACGAATTCATAGTGCAAAGAGCTAATTTTTTC [GTGCAC_site9710] | 9.12 ± 0.53 |
| GATCATTCAGTTTTATCACACACAATCAAACATATA [CACACA_site8882] | 8.03 ± 0.56 |
| ATGCGTTAATCTATATATATTATGTATAGATTTTCA [CACACA_negctrl_site1650] | 7.65 ± 0.4 |
| AACATATTTATGATGTGTACCTACATAATAGAATTT [XGTACX_site141] | 7.54 ± 0.49 |
| CATAATGTAAATAAGTGTACACATATATAATACATA [XGTACX_site3108] | 8.09 ± 0.23 |
| TTTTTTAATATATTATTATAAATATTTTTTATGTGT [GTGCAC_negctrl_site712] | 7.54 ± 0.47 |
| ACTACATAATATTAACGTACATATTATAATACTTGC [XGTACX_site954] | 7.95 ± 0.57 |
| ATATAACACATTAGTTGTACTATTTTTAATTGGTGA [XGTACX_site961] | 7.62 ± 0.56 |
| TACATAATAACATGTACACACATTCTTCTATAAATG [CACACA_site4061] | 7.77 ± 0.45 |
| ACATAATAAAAATGACGTACAATTTTTTTTTTTCAT [XGTACX_site8340] | 7.75 ± 0.38 |
| CATTAAAAAGAAAGTTCACACACATATATATGACGG [CACACA_site8836] | 7.82 ± 0.49 |
| TTTATATTATTAGAAACACACATTAGATTAAAATTA [CACACA_site3286] | 7.37 ± 0.42 |

| Sequence | gcPBM binding intensity (ln) |
| --- | --- |
| TATATATATATGTGCACACCAATTGTATGTAATATA [CACACA_site3889] | 10.04 ± 0.092 |
| TATTTAATTACATGAACACACATTATATATTTTTAA [CACACA_site5615] | 7.53 ± 0.46 |
| TGCTATAATTTATATACACACAAATATATACACATA [CACACA_site9356] | 7.8 ± 0.34 |
| GATAATAATAAACAACCACACACAAAAAAACAAAAA [CACACA_site9074] | 7.94 ± 0.49 |
| TTCAAATTTCCACATACACACCTTGTAGATCTATAT [CACACA_site6270] | 8.04 ± 0.54 |
| CAATGTTGTACATACACACACACAAAAAAAAAATAA [CACACA_site2407] | 8.11 ± 0.11 |
| ATAAAAAAACACACTCGTACACACATATTTTCTTTC [XGTACX_site6565] | 8.07 ± 0.45 |
| AAAAAAAAAAAAAAAAAAAAAAAAAAAAAAACATAT [GTGCAC_negctrl_site580] | 10.2 ± 0.23 |
| ATGAATAATTAATGATGTACTTAAAAAAAAAAATAT [XGTACX_site6346] | 7.88 ± 0.55 |
| ATATATTATATTGAATGTACATATATATATTATATA [XGTACX_site8445] | 7.74 ± 0.14 |
| GTTAATATCTTGAACAGTACTCTAAATATCTACATA [XGTACX_site5358] | 7.68 ± 0.53 |
| TTACAATAAATTATAGTGCAATATTTTATTTAATAT | 10.6 ± 0.36 |
| TAGCCCATATGGAATACACACTGAAAATAAAAAAAG [CACACA_site5799] | 7.83 ± 0.76 |
| GAAATTTTATTTCGGCGGACAAATGTATACTTTCTT [XGTACX_site4238] | 7.66 ± 0.61 |
| AAAATATATATAAATGCATGCATAATGAAATATATA [TGCATGCA_site39] | 7.94 ± 0.76 |
| TTTTAAAAAACAAACACACACGTAGAAAAAAAAAAA [CACACA_site4608] | 8.21 ± 0.71 |
| CTGTATAAAACCAATGCATGTAAATATATTAATATA [TGCATGCA_site511] | 7.96 ± 0.35 |
| GAGAAGACATTACACAGTACCCAGTAACTCTACGGA [XGTACX_site2000] | 7.54 ± 0.47 |
| AAATTGGGGCTTGTTACACACTTAGTGCGAGTTCTA [CACACA_site582] | 8.22 ± 0.33 |
| GATTATTATGTCCATGCATGTTAATATATATTAATT [TGCATGCA_site837] | 8.19 ± 0.7 |
